Assay results reported in the supplement of paper PMC10369915.
The list shows a part of the results. Rule as the data show it: active = 3.2 or more and inactive = the rest. Only a few entries rise above the background.

B1: NRAP_Y523_N519I (peptide)
chain: KIKLNYTLPQD
B2: NRAP_Y53 (peptide)
chain: HQKKPYCHAHN
B3: NRCAM_Y739_Y739H (peptide)
chain: EASEQHLTKAS
B4: NSA2_Y6_R11C (peptide)
chain: MPQNEYIELHC
B5: NSD1_Y1987_R1984Q (peptide)
chain: RAQIRYAQEHD
B6: NSMAF_Y626 (peptide)
chain: QLHEHYKIHKE
B7: NSMF_Y506 (peptide)
chain: QMIETYFDFRL
B8: NSMF_Y506_L511V (peptide)
chain: QMIETYFDFRV
B9: NT5C_Y65_P68L (peptide)
chain: KVASVYEALGF
B10: NTHL1_Y177_I176T (peptide)
chain: LGKLTYPVGFW
B11: NTN1_Y490_K489E (peptide)
chain: INMKEYCKKDY
B12: NTN1_Y490_K489E_YF (peptide)
chain: INMKEYCKKDF
B13: NTRK1_Y496 (peptide)
chain: IENPQYFSDAC
B14: NTRK1_Y591 (peptide)
chain: LMVFEYMRHGD
B15: NTRK1_Y676_D674Y (peptide)
chain: MSRYIYSTDYY
B16: NTRK1_Y676_YF (peptide)
chain: MSRDIYSTDFF
B17: NTRK1_Y791 (peptide)
chain: QAPPVYLDVLG
B18: NTRK2_Y702 (peptide)
chain: MSRDVYSTDYY
B19: NTRK2_Y702_M697I (peptide)
chain: ISRDVYSTDYY
B20: NTRK2_Y702_R699G (peptide)
chain: MSGDVYSTDYY
B21: NTRK2_Y702_R699G_YF (peptide)
chain: MSGDVYSTDFF
B22: NTRK2_Y702_T704I (peptide)
chain: MSRDVYSIDYY
B23: NTRK2_Y702_T704I_YF (peptide)
chain: MSRDVYSIDFF
B24: NTRK2_Y706 (peptide)
chain: VYSTDYYRVGG
B25: NTRK2_Y706_Y706C_YF (peptide)
chain: VFSTDCFRVGG
B26: NTRK2_Y707 (peptide)
chain: YSTDYYRVGGH
B27: NTRK2_Y707_Y706C (peptide)
chain: YSTDCYRVGGH
B28: NTRK3_Y744 (peptide)
chain: PESIMYRKFTT
B29: NTRK3_Y744_R745P (peptide)
chain: PESIMYPKFTT
B30: NTRK3_Y744_R745W (peptide)
chain: PESIMYWKFTT
B31: NUBPL_Y109_D105Y (peptide)
chain: LYVDVYGPSVP
B32: NUBPL_Y109_D105Y_YF (peptide)
chain: LFVDVYGPSVP
B33: NUP107_Y296 (peptide)
chain: YAKSVYWENTL
B34: NUP107_Y296_E298D (peptide)
chain: YAKSVYWDNTL
B35: NUP107_Y296_E298D_YF (peptide)
chain: FAKSVYWDNTL
B36: NUP107_Y296_YF (peptide)
chain: FAKSVYWENTL
B37: NUP160_Y773_P768S_YF (peptide)
chain: SLLLSYFLIKW

Assays:
Test in all cases: enrichment score (SH2-bound / input frequency) (ratio); bacterial display of known human phosphotyrosine sites (pTyr-Var adds point mutants) read by sequencing; higher = stronger binding; tyrosines were phosphorylated by kinases first
Settings in all cases: peptide library: pTyr-Var
[1] = molecular target: SHP2 C-SH2 domain E139D
[2] = molecular target: SHP2 C-SH2 domain wild-type
[3] = molecular target: SHP2 N-SH2 domain L43F
[4] = molecular target: SHP2 N-SH2 domain T42A
[5] = molecular target: SHP2 N-SH2 domain T52S
[6] = molecular target: SHP2 N-SH2 domain wild-type
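Also: displayed peptides selected on beads carrying the immobilized SH2 domain, with library peptides lacking any tyrosine serving as negative controls.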

Binder | enrichment score [1] | enrichment score [2] | enrichment score [3] | enrichment score [4] | enrichment score [5] | enrichment score [6]
B1 | inactive: 1.07 | inactive: 0.846 | inactive: 1.03 | inactive: 1.03 | inactive: 1.19 | inactive: 1.2
B2 | active: 3.83 | active: 3.46 | active: 3.7 | inactive: 2.83 | active: 3.29 | active: 3.63
B3 | inactive: 0.519 | inactive: 0.372 | inactive: 0.549 | inactive: 0.473 | inactive: 0.651 | inactive: 0.539
B4 | inactive: 0.885 | inactive: 0.706 | inactive: 0.758 | inactive: 0.581 | inactive: 0.823 | inactive: 0.668
B5 | inactive: 0.508 | inactive: 0.432 | inactive: 0.485 | inactive: 0.992 | inactive: 0.36 | inactive: 0.422
B6 | inactive: 2.01 | inactive: 1.91 | inactive: 1.86 | inactive: 2.04 | inactive: 2.06 | inactive: 2.04
B7 | inactive: 1.68 | inactive: 2.07 | inactive: 1.72 | inactive: 1.7 | active: 4.53 | inactive: 1.96
B8 | inactive: 1.68 | inactive: 1.63 | inactive: 1.61 | inactive: 1.4 | inactive: 1.85 | inactive: 1.53
B9 | inactive: 1 | inactive: 0.904 | inactive: 0.981 | inactive: 1.04 | inactive: 0.831 | inactive: 0.961
B10 | inactive: 1.47 | inactive: 1.19 | inactive: 1 | inactive: 1.44 | inactive: 1.6 | inactive: 1.35
B11 | inactive: 0.928 | inactive: 1.24 | inactive: 1.01 | inactive: 0.867 | inactive: 0.821 | inactive: 1.55
B12 | inactive: 0.947 | inactive: 0.97 | inactive: 0.893 | inactive: 0.728 | inactive: 0.776 | inactive: 1.05
B13 | inactive: 0.714 | inactive: 0.7 | inactive: 0.688 | inactive: 0.65 | inactive: 0.627 | inactive: 0.755
B14 | inactive: 2.83 | inactive: 2.25 | inactive: 2.8 | inactive: 2.55 | inactive: 2.58 | inactive: 2.83
B15 | inactive: 1.44 | inactive: 1.85 | inactive: 1.16 | inactive: 1.01 | inactive: 1.2 | inactive: 1.23
B16 | inactive: 0.904 | inactive: 0.814 | inactive: 0.844 | inactive: 0.72 | inactive: 0.747 | inactive: 0.875
B17 | inactive: 0.806 | inactive: 0.798 | inactive: 0.904 | inactive: 2.02 | inactive: 1.12 | inactive: 0.707
B18 | inactive: 0.774 | inactive: 0.607 | inactive: 0.565 | inactive: 0.557 | inactive: 0.747 | inactive: 0.798
B19 | inactive: 0.644 | inactive: 0.837 | inactive: 0.547 | inactive: 0.472 | inactive: 0.742 | inactive: 0.718

Binder | enrichment score [1] | enrichment score [2] | enrichment score [3] | enrichment score [4] | enrichment score [5] | enrichment score [6]
B20 | inactive: 0.609 | inactive: 0.576 | inactive: 0.776 | inactive: 0.673 | inactive: 0.548 | inactive: 0.732
B21 | inactive: 0.984 | inactive: 0.745 | inactive: 0.808 | inactive: 0.682 | inactive: 0.714 | inactive: 0.649
B22 | inactive: 0.666 | inactive: 0.578 | inactive: 0.653 | inactive: 0.553 | inactive: 0.857 | inactive: 0.719
B23 | inactive: 0.941 | inactive: 0.896 | inactive: 1.03 | inactive: 0.85 | inactive: 0.95 | inactive: 1.03
B24 | inactive: 0.77 | inactive: 0.8 | inactive: 0.553 | inactive: 0.662 | inactive: 0.621 | inactive: 0.67
B25 | inactive: 1.06 | inactive: 0.739 | inactive: 0.988 | inactive: 1.08 | inactive: 0.969 | inactive: 0.927
B26 | inactive: 0.704 | inactive: 0.742 | inactive: 0.8 | inactive: 0.795 | inactive: 0.889 | inactive: 0.971
B27 | inactive: 0.685 | inactive: 0.734 | inactive: 0.69 | inactive: 0.664 | inactive: 0.572 | inactive: 0.759
B28 | inactive: 0.695 | inactive: 0.486 | inactive: 0.584 | inactive: 0.388 | inactive: 0.332 | inactive: 0.657
B29 | inactive: 1.04 | inactive: 0.479 | inactive: 0.704 | inactive: 0.697 | inactive: 0.931 | inactive: 0.56
B30 | inactive: 0.861 | inactive: 0.995 | inactive: 0.704 | inactive: 1.74 | inactive: 1.13 | inactive: 1.22
B31 | inactive: 1.27 | inactive: 1.14 | inactive: 1.39 | inactive: 1.23 | inactive: 1.41 | inactive: 1.12
B32 | inactive: 1.5 | inactive: 1.34 | inactive: 1.33 | inactive: 1.09 | inactive: 1.36 | inactive: 1.21
B33 | inactive: 0.973 | inactive: 0.899 | inactive: 1.17 | inactive: 2.22 | inactive: 1.23 | inactive: 1.03
B34 | inactive: 0.954 | inactive: 0.912 | inactive: 0.82 | inactive: 1.43 | inactive: 0.79 | inactive: 0.85
B35 | inactive: 0.681 | inactive: 0.898 | inactive: 0.936 | inactive: 1.28 | inactive: 0.851 | inactive: 0.647
B36 | inactive: 1.06 | inactive: 0.807 | inactive: 0.805 | inactive: 2.02 | inactive: 0.944 | inactive: 1.15
B37 | active: 3.28 | active: 3.34 | active: 3.76 | inactive: 2.75 | inactive: 3.05 | inactive: 3.11
